Assay results: the supplement of paper PMC12632987
Over roughly 4,500 sequences, “median log2 fold change of GCK-ALFA target abundance (FLAG IP / Myc IP barcode read proportion)” has its median near 0.078; the lowest 2% begin near -0.6. This is one part of the list.

B1: GBRAP_137_3641 (protein)
chain: MKVTIEKETIDDLVEITITVDDPEKAEEYKELLLDIAVEHGALAISAEIKEDGTLEVTIWVPKEKADALIDAIVKALQEKFNATVTVIDKDTGEVKTYKP
B2: GBRAP_80_6806 (protein)
chain: AEARLAAALAEIAALDPELAARVADIVARARALGVPTEVLAEYAEAIAALLRVDPARARELVDELAEELAEEAEAGDTENATATLRVYAGQALLAVEELE
B3: GBRAP_177_5011 (protein)
chain: SVVEQARAALDDPAALLALVRATDPSKLSKEEMLELIRIVAKTLAKHGYDEELVEALAELILAAMKHHGVSLGELLGIVIEEVDADTAERILDKVYELSE
B4: GBRAP_52_6206 (protein)
chain: MEERMRRAAEELLALVRAGDLEGAREYARRLARELSEEELELLGEQLVEIARRAAPEDLDAVFEAAEILSEVLEEEGYDEALADGLLNRVAAALYERELE
B5: GBRAP_128_3540 (protein)
chain: SLEEAKEYAEEVMEKIKNSTVEEAKKITKEFLEKLKSWTDEEVEAAVDVVIEKLPELTAEKLEALADTIEEERGKFTPEKQNLLAEVEVEALNEALEKEE
B6: GBRAP_122_2946 (protein)
chain: SETEERLERLVEEMVEALEAGDEEKLRELAEELVRLFDTISPEEARAAVERLIERVEGDEEKLERALRALLEAFYKNEPLTPAQEAAADVVAERFDELSE
B7: GBRAP_184_5021 (protein)
chain: RLLEEEIEVENVEEARAKLAELRARLAAEKADAVVLLDIKDPTPEILATIAEEVARIMAEGAAARLTVGIAAPLTEEQVDFLVERLSAAGARLVVALSEE
B8: GBRAP_83_6972 (protein)
chain: AEKIVVATTPDHIDSAIDAARDLATEEGYEVTVEIIGEPEEALAAARRAAEALKDIPNVSIVVAVERVRAEEAERLRREVAEIGERYGLEVRFEAELLPP
B9: GBRAP_52_5968 (protein)
chain: MRERAEELVREAIELERRGDEEGLRRLLREIAETWDDEELRLLAEALAEAAEEGDEEEAEIALRVAIRLADVLEEAGRDPRLAADLLGLVSTAAYKKELE
B10: GBRAP_16_4997 (protein)
chain: EEILARTEGAAEFAKLIADALEGGDPELVKKAKELAEKLKRAAELIKKGGEKEEILKELEEALKLAEELAKLLAATDPEGAAAAQTLAKEIKEIIKEVKK
B11: GBRAP_125_3105 (protein)
chain: MEEEILEALKLLAKALGFDDEDAEEAARLAREFSVKMTLYALLKAEGEEELADLVEKLTEEQAKKVLLKVAEWLKKNPNATKEEVLKKLKEVILEELEKA
B12: GBRAP_186_5373 (protein)
chain: SEELEEKIDEIIEELEAEGYRVIVVDTITELTPEEKEAIRDDAEAVGELAKETGQKWALVIPFAGTAEEVEEARAFVAELNKEFSAKYGVKVRLAGEVVP
B13: GBRAP_43_5758 (protein)
chain: SKELVEGALDFALLAAESPEISEETKVKAIIAAFRLAADEGYLDKELLKKVVEAAAKNLSAESLKKIADELEKLAKKYPELAEKFKEAAKKLREAIKKKE
B14: GBRAP_11_2675 (protein)
chain: KKEALKKAAELAKAAAAAVDALIAAGVTDAALQAAAGKLLEELKKLVEENADEASKKDVEVAVELWEKLKADPENAAEYAEQLRAALRVLEGNFLLEIEE
B15: GBRAP_128_3395 (protein)
chain: SEEEKLKEAFELIDEIINSDVEKAKELAKKLMELFGTMNKETREKVVEYIEEKLPKLTAEKLEVLADVLEEQRPKLDPYGQELANEMLVEALNEAEEKEE
B16: GBRAP_160_4218 (protein)
chain: MELVKKLVEIVREEFEEALELIEGESPEERRVILDVAVGNVILESMEIEGVTDEMEETVEEMSEELAEELLEAADESPEERRELIEERVEELEKELKKLE
B17: GBRAP_128_3394 (protein)
chain: SQEEKLKEALELIDKITEADLETARELARELMELFGELDLESAEKVADYLESKLPELSAEKLDVLADVLREERPKLDPEKAALVNGVEVEALNEAEEKEE
B18: GBRAP_52_6113 (protein)
chain: MRARARAFVDEVLALVRAGRLEEARARLREAAETWDDEELRVLVEAVAERARAAPPEDLDAVWRLAELAADELEAAGRDPVLADDLLARTAAALYERELA
B19: GBRAP_11_2756 (protein)
chain: KKEKLKEMAELAEKAAELVKKLLEEGVDNEELQEELEKVLKELKKLVKEYGDEADKKLVEIAEELWKKAKEDEENKEQYYKELLATLRVLSGDFLLEYEE
B20: GBRAP_53_6409 (protein)
chain: MEEKIKKLIKEIKEAAEKATKANEEEQLKLAKEIVELMKKAKEAGLSDEELTKLLIEIAKKLKEAGASDRTLVILAQGAVDLGLDEAAAEITELIVEDLE
B21: GBRAP_74_6547 (protein)
chain: NAELKEKIKEAEKAGDLKKVIELLKEAIENGDFENAKYALLALGKIIKENREKVTLEEAEAAAEAVAELLSAFPSEDFSDEAYEAIKTVLTLAVELEQKA
B22: GBRAP_9_7158 (protein)
chain: MDELVAKLREVIEDAFEEIKEVVPEEVKPIVEKLREEAEKRLEELEEDPEATPEELVEEAKRILREFRERMKKEVDEETAKIVDAIVDTAELEIEEIEEE
B23: GBRAP_52_6298 (protein)
chain: MEEEAKKIAEELVELQKKGDEEGLEKKVKELVEEKSEEFLKLVAEELAKMAAESDEEDIDIIFEVMELLADEMIEGGYDEAFAEDLLALVAKKGYENYLK
B24: GBRAP_160_4368 (protein)
chain: AAALKALAAEIAALRAEFEEEAKDLTPEEVRKLALGVLAEVAALVWENEAVSEETEDAIMAIIDAAEAELRANADATPEEIVAITTAALDQIIALVEAEA
B25: GBRAP_125_3132 (protein)
chain: HMEEILENLAIVAKALGLSDDDVEEAVKIAEKHGVKGTMYAILAALGYDEVADLVEKITEEEAIEVVKEVAEKIKKDPSLTPEEVVELIKKLLKEKIAAK
B26: GBRAP_166_4927 (protein)
chain: HMEEKVEEAEKRVREVIEKGKADPTKTKEQITVDVAYETAEILEEEDDEETKLAIVEKALKLAKEAGLDPRRLATLTASLAGFDDETREKIDKIVEKILK
B27: GBRAP_128_3401 (protein)
chain: SEEEKVEEAKKLIEAIVEADVEEARKLARELMELFGTLSLEAQKKVAEAIEAALPKLTAEKLDVLADVIREKMPEFDPEKQDILNDMEVAALNAAEEKEE
B28: GBRAP_43_5745 (protein)
chain: DKELVEGALDLAILMAEDPSIPEETKLKAAKAAFDLIADTGIKETERLIELVKAFAENSSLESAEKLLKHLKELAAKSEKVKETFDAAIEALEKEIEKKK
B29: GBRAP_184_5115 (protein)
chain: KILEFEIEAENLEELKKKLEEVKEEAKKEKATVLVIVKIKNLTPEMAKALIEKLAEIKKAGAKEVIALIESDNISDEVLDTIYEGAKKNGLKNVVIARKE

Biological target: GABARAP, O95166
Sequence (O95166 whole entry, the tested form may be a part): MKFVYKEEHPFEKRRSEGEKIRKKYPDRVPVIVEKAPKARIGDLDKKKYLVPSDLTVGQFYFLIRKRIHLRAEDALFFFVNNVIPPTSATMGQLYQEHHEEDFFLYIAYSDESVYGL
Experiment: median log2 fold change of GCK-ALFA target abundance (FLAG IP / Myc IP barcode read proportion) (log2 ratio); each designed protein is fused to an ALFA-tag nanobody in HEK293 cells to bring the named protein to FLAG-tagged glucokinase (GCK); Myc marks an untargeted standard; higher = target protein stabilised (more abundant)
Details: target protein: 3xFLAG-MCP-GCK-ALFA reporter; HEK293 landing pad (RPLP)
Procedure, shortened: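 Sequencing of reverse-transcribed, amplified circular RNA barcodes from anti-FLAG and anti-Myc immunoprecipitates provided the readout for an ALFA-nanobody-fused binder library recombined into HEK293 landing-pad cells. Those cells were induced with 2 μg mL^−1 doxycycline, transfected with a plasmid expressing a FLAG-tagged target and a Myc-tagged standard, and lysed after 48 h. Target abundance is the per-binder median log2 ratio of FLAG to Myc barcode read proportions. Only barcodes at a proportion of ≥10^−7 in both replicates and binders with ≥3 barcodes per replicate were kept, with a 10^−6 pseudocount added before the two replicates were pooled.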

Binder	median log2 fold change
B1	-0.402
B2	0.0603
B3	0.194
B4	-0.486
B5	0.0544
B6	0.219
B7	0.0194
B8	0.0621
B9	-0.00502
B10	0.245
B11	-0.694
B12	-0.206
B13	0.154
B14	0.187
B15	0.133
B16	-0.299
B17	0.206
B18	-0.0387
B19	0.0874
B20	-0.0147
B21	-0.0235
B22	0.0143
B23	-0.352
B24	0.0375
B25	-0.0148
B26	0.388
B27	0.0103
B28	0.197
B29	0.0258
